Measured values taken from the supplement of paper PMC8728848.
This is one part of the list.

Tests used:
Assay in all cases: glycan array binding signal (z-score within array); higher = stronger binding
Details in all cases: glycan notation: IUPAC condensed, linker removed
[1] = target: Gal(b1-3)GlcNAc(b1-6)GalNAc
Method in brief: (§1)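 The binding signal is a Z-score computed within each array and averaged over linkers. Arrays of the same protein sequence at different concentrations or buffers were also averaged together. Data originate from 3228 arrays in the Consortium for Functional Glycomics database, kept only where the protein sequence was available.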

[2] = target: Gal(b1-3)GlcNAc(b1-6)[Gal(b1-3)]GalNAc
Method in brief: as §1

Gal(b1-3)GlcNAc6S = target: Gal(b1-3)GlcNAc6S
Method in brief: as §1

[3] = target: Gal(b1-3)[Fuc(a1-4)]GlcNAc
Method in brief: as §1

[4] = target: Gal(b1-3)[Fuc(a1-4)]GlcNAc(b1-2)Man
Method in brief: as §1

[5] = target: Gal(b1-3)[Fuc(a1-4)]GlcNAc(b1-2)Man(a1-3)[Gal(b1-3)[Fuc(a1-4)]GlcNAc(b1-2)Man(a1-6)]Man(b1-4)GlcNAc(b1-4)[Fuc(a1-6)]GlcNAc
Method in brief: as §1

[6] = target: Gal(b1-3)[Fuc(a1-4)]GlcNAc(b1-3)Gal(b1-3)[Fuc(a1-4)]GlcNAc
Method in brief: as §1

[7] = target: Gal(b1-3)[Fuc(a1-4)]GlcNAc(b1-3)Gal(b1-4)[Fuc(a1-3)]GlcNAc
Method in brief: as §1

[8] = target: Gal(b1-3)[Fuc(a1-4)]GlcNAc(b1-6)GalNAc
Method in brief: as §1

[9] = target: Gal(b1-3)[GlcNAc(b1-6)]GalNAc
Method in brief: as §1

[10] = target: Gal(b1-3)[Neu5Ac(a2-6)]GalNAc
Method in brief: as §1

[11] = target: Gal(b1-3)[Neu5Ac(a2-6)]GlcNAc(b1-4)Gal(b1-4)Glc
Method in brief: as §1

[12] = target: Gal(b1-3)[Neu5Ac(b2-6)]GalNAc
Method in brief: as §1

Gal(b1-4)Gal = target: Gal(b1-4)Gal
Method in brief: as §1

[13] = target: Gal(b1-4)GalNAc(a1-3)[Fuc(a1-2)]Gal(b1-4)GlcNAc
Method in brief: as §1

[14] = target: Gal(b1-4)GalNAc(b1-3)[Fuc(a1-2)]Gal(b1-4)GlcNAc
Method in brief: as §1

Gal(b1-4)Glc = target: Gal(b1-4)Glc
Method in brief: as §1

Gal(b1-4)Glc6S = target: Gal(b1-4)Glc6S
Method in brief: as §1

Gal(b1-4)GlcNAc = target: Gal(b1-4)GlcNAc
Method in brief: as §1

[15] = target: Gal(b1-4)GlcNAc(a1-6)Gal(b1-4)GlcNAc
Method in brief: as §1

Gal(b1-4)GlcNAc(b1-2)Man = target: Gal(b1-4)GlcNAc(b1-2)Man
Method in brief: as §1

[16] = target: Gal(b1-4)GlcNAc(b1-2)Man(a1-3)Man(b1-4)GlcNAc(b1-4)GlcNAc
Method in brief: as §1

[17] = target: Gal(b1-4)GlcNAc(b1-2)Man(a1-3)[Gal(b1-4)GlcNAc(b1-2)Man(a1-6)]Man(b1-4)GlcNAc(b1-4)GlcNAc
Method in brief: as §1

[18] = target: Gal(b1-4)GlcNAc(b1-2)Man(a1-3)[Gal(b1-4)GlcNAc(b1-2)Man(a1-6)]Man(b1-4)GlcNAc(b1-4)[Fuc(a1-6)]GlcNAc
Method in brief: as §1

[19] = target: Gal(b1-4)GlcNAc(b1-2)Man(a1-3)[Gal(b1-4)GlcNAc(b1-2)Man(a1-6)][Gal(b1-4)GlcNAc(b1-4)]Man(b1-4)GlcNAc(b1-4)[Fuc(a1-6)]GlcNAc
Method in brief: as §1

[20] = target: Gal(b1-4)GlcNAc(b1-2)Man(a1-3)[Gal(b1-4)GlcNAc(b1-2)Man(a1-6)][GlcNAc(b1-4)]Man(b1-4)GlcNAc(b1-4)[Fuc(a1-6)]GlcNAc
Method in brief: as §1

[21] = target: Gal(b1-4)GlcNAc(b1-2)Man(a1-3)[GlcNAc(b1-2)Man(a1-6)]Man(b1-4)GlcNAc(b1-4)GlcNAc
Method in brief: as §1

[22] = target: Gal(b1-4)GlcNAc(b1-2)Man(a1-3)[GlcNAc(b1-4)][Gal(b1-4)GlcNAc(b1-2)Man(a1-6)]Man(b1-4)GlcNAc(b1-4)GlcNAc
Method in brief: as §1

[23] = target: Gal(b1-4)GlcNAc(b1-2)Man(a1-3)[Man(a1-6)]Man(b1-4)GlcNAc(b1-4)GlcNAc
Method in brief: as §1

[24] = target: Gal(b1-4)GlcNAc(b1-2)Man(a1-6)Man(b1-4)GlcNAc(b1-4)GlcNAc
Method in brief: as §1

[25] = target: Gal(b1-4)GlcNAc(b1-2)Man(a1-6)[GlcNAc(b1-2)Man(a1-3)]Man(b1-4)GlcNAc(b1-4)GlcNAc
Method in brief: as §1

[26] = target: Gal(b1-4)GlcNAc(b1-2)Man(a1-6)[Man(a1-3)]Man(b1-4)GlcNAc(b1-4)GlcNAc
Method in brief: as §1

[27] = target: Gal(b1-4)GlcNAc(b1-2)[Gal(b1-4)GlcNAc(b1-4)]Man(a1-3)[Gal(b1-4)GlcNAc(b1-2)Man(a1-6)]Man(b1-4)GlcNAc(b1-4)GlcNAc
Method in brief: as §1

[28] = target: Gal(b1-4)GlcNAc(b1-2)[Gal(b1-4)GlcNAc(b1-4)]Man(a1-3)[Gal(b1-4)GlcNAc(b1-2)[Gal(b1-4)GlcNAc(b1-6)]Man(a1-6)]Man(b1-4)GlcNAc(b1-4)GlcNAc
Method in brief: as §1

[29] = target: Gal(b1-4)GlcNAc(b1-2)[Gal(b1-4)GlcNAc(b1-4)]Man(a1-3)[GlcNAc(b1-4)][Gal(b1-4)GlcNAc(b1-2)Man(a1-6)]Man(b1-4)GlcNAc(b1-4)GlcNAc
Method in brief: as §1

[30] = target: Gal(b1-4)GlcNAc(b1-2)[Gal(b1-4)GlcNAc(b1-4)]Man(a1-3)[GlcNAc(b1-4)][Gal(b1-4)GlcNAc(b1-2)[Gal(b1-4)GlcNAc(b1-6)]Man(a1-6)]Man(b1-4)GlcNAc(b1-4)GlcNAc
Method in brief: as §1

[31] = target: Gal(b1-4)GlcNAc(b1-2)[Gal(b1-4)GlcNAc(b1-6)]Man(a1-6)[Gal(b1-4)GlcNAc(b1-2)Man(a1-3)]Man(b1-4)GlcNAc(b1-4)GlcNAc
Method in brief: as §1

B1: AT1G73650(15) (Arabidopsis thaliana), F4HRY1 (protein)
chain: MGTVLDSHFLALTAIVTVIYQFIFFVITALFKFDQVTDFAGSTNFVILAVLTLVLKASWHFRQIVLTLLVVVWGLRLGIFLLMETRILQWGEDRRFDEQRGNIVRLIIFWTLQAVWVWTVSLPLTLVNASDGGGSLKPADVIGWTMETWVFGFLIEAAADQQKLSFKNSPENRGKWCDVGVWKYSRHPNYFGEMETLLWWGIFVAASPVLEGAEYLVIFGPLFLTLLLLFVSGIPLLEASADKKHGNSGAYRSYKKTTSPLILFPRGVYGNLPGWFKTVFLFEFPFYSRNLPQEGRLQNSKEKEVKDD
- glycan array binding signal (z-score) [1]: -0.097
- glycan array binding signal (z-score) [2]: 0.864
- glycan array binding signal (z-score) (Gal(b1-3)GlcNAc6S): -0.299
- glycan array binding signal (z-score) [3]: -0.351
- glycan array binding signal (z-score) [4]: -0.325
- glycan array binding signal (z-score) [5]: -0.504
- glycan array binding signal (z-score) [6]: -0.093
- glycan array binding signal (z-score) [7]: -0.287
- glycan array binding signal (z-score) [8]: -0.397
- glycan array binding signal (z-score) [9]: -0.334
- glycan array binding signal (z-score) [10]: -0.415
- glycan array binding signal (z-score) [11]: -0.639
- glycan array binding signal (z-score) [12]: -0.525
- glycan array binding signal (z-score) (Gal(b1-4)Gal): 0.055
- glycan array binding signal (z-score) [13]: -0.354
- glycan array binding signal (z-score) [14]: -0.184
- glycan array binding signal (z-score) (Gal(b1-4)Glc): -0.165
- glycan array binding signal (z-score) (Gal(b1-4)Glc6S): 2.95
- glycan array binding signal (z-score) (Gal(b1-4)GlcNAc): -0.459
- glycan array binding signal (z-score) [15]: -0.191
- glycan array binding signal (z-score) (Gal(b1-4)GlcNAc(b1-2)Man): -0.411
- glycan array binding signal (z-score) [16]: -0.354
- glycan array binding signal (z-score) [17]: -0.377
- glycan array binding signal (z-score) [18]: -0.341
- glycan array binding signal (z-score) [19]: -0.466
- glycan array binding signal (z-score) [20]: -0.616
- glycan array binding signal (z-score) [21]: -0.742
- glycan array binding signal (z-score) [22]: 0.153
- glycan array binding signal (z-score) [23]: -0.526
- glycan array binding signal (z-score) [24]: -0.412
- glycan array binding signal (z-score) [25]: -0.554
- glycan array binding signal (z-score) [26]: -0.586
- glycan array binding signal (z-score) [27]: -0.835
- glycan array binding signal (z-score) [28]: -0.568
- glycan array binding signal (z-score) [29]: -0.154
- glycan array binding signal (z-score) [30]: -0.701
- glycan array binding signal (z-score) [31]: 1.98
